Data from the antibiotic and cytotoxicity screens of Wong et al. (2023).
The other results are listed elsewhere or left out.

system: S. aureus RN4220; experiment: growth inhibition call (relative growth <= 0.2); conditions: 50 µM

Growth inhibition call, inactive:
COc1ccc(NC(=O)N(C)C[C@H]2OCCCC[C@H](C)Oc3ccc(NC(=O)C4CCCCC4)cc3C(=O)N([C@@H](C)CO)C[C@@H]2C)cc1
COc1ccc(S(=O)(=O)N[C@@H]2C=C[C@@H](CC(=O)N3CCC(Cc4ccccc4)CC3)O[C@H]2CO)cc1
COc1ccc(NC(=O)N(C)C[C@H]2Oc3c(NC(=O)c4cnccn4)cccc3C(=O)N([C@H](C)CO)C[C@H]2C)cc1
C[C@@H]1CN([C@@H](C)CO)C(=O)Cc2cc(NC(=O)C3CCCCC3)ccc2O[C@H]1CN(C)Cc1ccc(-c2ccccc2)cc1
C[C@@H]1CN([C@@H](C)CO)C(=O)c2cc(NC(=O)c3ccncc3)ccc2O[C@@H](C)CCCCO[C@@H]1CN(C)S(C)(=O)=O
C[C@@H]1CCCCO[C@@H](CN(C)Cc2ccncc2)[C@H](C)CN([C@@H](C)CO)C(=O)c2cc(NC(=O)C3CCCCC3)ccc2O1
COc1ccc(S(=O)(=O)N(C)C[C@H]2OCCCC[C@@H](C)Oc3ccc(NC(=O)Nc4ccc(C(F)(F)F)cc4)cc3C(=O)N([C@H](C)CO)C[C@@H]2C)cc1
CC(=O)Oc1ccccc1C(=O)Nc1ccccc1
c1ccc2c(CSc3nc4ccccc4s3)cccc2c1
NC(=O)[C@@H]1[C@H]2C(=O)O[C@H](c3ccccc3)[C@H](c3ccccc3)N2[C@H](c2ccc(OCCO)cc2)[C@@]12C(=O)Nc1ccc(C#CC3=CCCCC3)cc12
C[C@H]1CCCCO[C@H](CN(C)S(=O)(=O)c2ccccc2)[C@@H](C)CN([C@@H](C)CO)C(=O)c2cc(NC(=O)Nc3cccc4ccccc34)ccc2O1
